Data set [1] has as its target RB1CC1(1286-1594) (UniProt Q8TDY2 1286-1594). The data set is described as follows: SEC.
In data set [2] the target is RB1CC1(1286-1594) R1375A mutant (UniProt Q8TDY2 1286-1594, R1375A). The data set is described as follows: SEC.
Data set [3] concerns the molecule itself.
Data set [4] addresses Nano-RB1CC1(1286-1594) (UniProt Q8TDY2 1286-1594). The data set is described as follows: AUC.

B1: TAX1BP1([…]) (domain or fragment)
chain: not shown
modifications: labeled (label not named) in the spectral shift binding assay
In the case of B1, the binding result in data set [1] and in data set [2] was “binds” throughout. Moreover, in data set [3], the “stoichiometry N” value was 2.

B2: Trx-TAX1BP1([…]) (domain or fragment)
chain: not shown
Consider B2, for which, in data set [4], the binding result is “binds”.

For the origin of these results see paper PMC10945755 (Proceedings of the National Academy of Sciences of the …, 2024).
